In the RNAGym collection of RNA variant scans (doi:10.1073/pnas.2313332121):
This sample is rich in variants without activity.

B1: TPR 5TU (parent)
chain: GGAUCUUCUCGAUCUAACAAAAAAGACAAAUCUGCCACAAAGCUUGAGAGCAUCUUCGGAUGCAGAGGCGGCAGCCUUCGGUGGCGCGAUAGCGCCAACGUUCUCAACUAUGACACGCAAAACGCGUGCUCCGUUGAAUGGAGUUUAUCAUG

Variants of: B1
Assay: polymerase ribozyme fitness, log enrichment relative to wild type (log ratio); higher = more active; in vitro selection for triplet polymerase activity
Summary of the method: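 For each subunit of a heterodimeric triplet polymerase ribozyme, a mutant library was built by PCR and transcribed, then taken through a single in vitro selection round in triplicate. Selection involved annealing to a biotinylated primer, the partner subunit and triplets, incubation frozen at −7 °C, gel excision of extended constructs, capture on streptavidin beads and RT-PCR. Genotypes were retained after Illumina sequencing of inputs and outputs only with ≥10 input reads and ≥1 read in each output. Fitness is defined as the logarithm of a genotype's enrichment relative to wild-type enrichment, using inverse-variance-weighted averages across replicates, with the logarithm taken to base 2.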
With A3G A20C C38U A41C C57A A60C C79A A89U the “polymerase ribozyme fitness (log ratio)” value was at most -4.2.
With A3G A20G A30C U53A C76U U135G the “polymerase ribozyme fitness (log ratio)” value was at most -4.2.
In the case of A3G A20U A23U A26U G48C C63U C96U C114U, the “polymerase ribozyme fitness (log ratio)” value is reported as at most -4.2.
For A3G A21G A52G G68A G92U U101G C108G U148C, the “polymerase ribozyme fitness (log ratio)” value was at most -4.2.
For A3G A22C A23U C32G A64C U82A C96G U104A, the “polymerase ribozyme fitness (log ratio)” value was at most -4.2.
For A3G A23G G67A G88C, the “polymerase ribozyme fitness (log ratio)” value was at most -4.2.
With A3G A24C U53A U61A C85G the “polymerase ribozyme fitness (log ratio)” value was at most -4.2.
In the case of A3G A24U U55A C85A, the “polymerase ribozyme fitness (log ratio)” value is reported as -2.17.
In the case of A3G A26C C57G G65U C131A, the “polymerase ribozyme fitness (log ratio)” value is reported as at most -4.2.
In the case of A3G A26U C27U A28U G88A C129G U144C, the “polymerase ribozyme fitness (log ratio)” value is reported as at most -4.2.
In the case of A3G A28G A29C G94C G117A C118G, the “polymerase ribozyme fitness (log ratio)” value is reported as at most -4.2.
In the case of A3G A29U A30C G42A G141C, the “polymerase ribozyme fitness (log ratio)” value is reported as at most -4.2.
For A3G A30C C95U C105U, the “polymerase ribozyme fitness (log ratio)” value was at most -4.2.
In the case of A3G A30C G34A G48U G62U C87A A120U U127A U144A, the “polymerase ribozyme fitness (log ratio)” value is reported as at most -4.2.
In the case of A3G A30G A47G G71C C87G U135G, the “polymerase ribozyme fitness (log ratio)” value is reported as at most -4.2.
For A3G A39C G50A G86A U145G, the “polymerase ribozyme fitness (log ratio)” value was at most -4.2.
For A3G A39U G70C G133C, the “polymerase ribozyme fitness (log ratio)” value was at most -4.2.
With A3G A49U C85G G124A G140C U148C the “polymerase ribozyme fitness (log ratio)” value was at most -4.2.
For A3G A52G G84U A106G A107G A119U U145C, the “polymerase ribozyme fitness (log ratio)” value was at most -4.2.
In the case of A3G A60C C76G A91U, the “polymerase ribozyme fitness (log ratio)” value is reported as at most -4.2.
In the case of A3G A73U G83U A137U, the “polymerase ribozyme fitness (log ratio)” value is reported as at most -4.2.
With A3G A91U C103G A110C G133C U145G the “polymerase ribozyme fitness (log ratio)” value was at most -4.2.
In the case of A3G C5A A19C A22C C57G G83C G92A C108G, the “polymerase ribozyme fitness (log ratio)” value is reported as at most -4.2.
For A3G C5G C27U U31C U44A G58C C75A C87U A91C G117A, the “polymerase ribozyme fitness (log ratio)” value was at most -4.2.
For A3G C5G U7C A12G G65C A119G, the “polymerase ribozyme fitness (log ratio)” value was at most -4.2.
For A3G C5U C8G C93A A113U, the “polymerase ribozyme fitness (log ratio)” value was at most -4.2.
With A3G C5U C14U U15C U55A G62A G92A U101C G128C the “polymerase ribozyme fitness (log ratio)” value was at most -4.2.
For A3G C8A A17G C32G A41C A120C C125G A142C, the “polymerase ribozyme fitness (log ratio)” value was at most -4.2.
For A3G C8G A22U A26G G46C C96U, the “polymerase ribozyme fitness (log ratio)” value was at most -4.2.
With A3G C8G A23C C54A G80C G81A A89U C93G the “polymerase ribozyme fitness (log ratio)” value was at most -4.2.
With A3G C8G A73G C85U A91C G94U A138C the “polymerase ribozyme fitness (log ratio)” value was at most -4.2.
In the case of A3G C8U A52C G83U C87U, the “polymerase ribozyme fitness (log ratio)” value is reported as at most -4.2.
For A3G C10U C32U A37G C76U A91C G140U, the “polymerase ribozyme fitness (log ratio)” value was at most -4.2.
With A3G C10U C36U C85A G126A the “polymerase ribozyme fitness (log ratio)” value was at most -4.2.
In the case of A3G C14G A16C U82C C129G C131A, the “polymerase ribozyme fitness (log ratio)” value is reported as at most -4.2.
In the case of A3G C14G A28C A30G C35A G81U G94A U134A, the “polymerase ribozyme fitness (log ratio)” value is reported as at most -4.2.
With A3G C14G C93G G143C the “polymerase ribozyme fitness (log ratio)” value was at most -4.2.
For A3G C18G C87U A91U U139C, the “polymerase ribozyme fitness (log ratio)” value was at most -4.2.
With A3G C18U A49C C57U C85G G143U the “polymerase ribozyme fitness (log ratio)” value was at most -4.2.
With A3G C27A A29G A41U G50A G59A G94U C116U C125A the “polymerase ribozyme fitness (log ratio)” value was at most -4.2.
With A3G C27U G74A C85A A122U U135G the “polymerase ribozyme fitness (log ratio)” value was at most -4.2.
For A3G C35G G83U C87U, the “polymerase ribozyme fitness (log ratio)” value was at most -4.2.
With A3G C36A U61G A120G the “polymerase ribozyme fitness (log ratio)” value was at most -4.2.
In the case of A3G C36U U45G A107U U109C, the “polymerase ribozyme fitness (log ratio)” value is reported as at most -4.2.
In the case of A3G C38U A64C G74A G80U, the “polymerase ribozyme fitness (log ratio)” value is reported as at most -4.2.
With A3G C43U G65U G68A G71A G86U G112U G152A the “polymerase ribozyme fitness (log ratio)” value was at most -4.2.
In the case of A3G C51A, the “polymerase ribozyme fitness (log ratio)” value is reported as -1.26.
In the case of A3G C51U G86U C108G C125A, the “polymerase ribozyme fitness (log ratio)” value is reported as at most -4.2.
For A3G C63G G83A G86U A120G, the “polymerase ribozyme fitness (log ratio)” value was at most -4.2.
In the case of A3G C69A A89G C116A A138G, the “polymerase ribozyme fitness (log ratio)” value is reported as at most -4.2.
For A3G C93A C99U C118A, the “polymerase ribozyme fitness (log ratio)” value was at most -4.2.
For A3G C95G C96G G100A, the “polymerase ribozyme fitness (log ratio)” value was at most -4.2.
With A3G G11C A20U G34A C85G C93U U146G the “polymerase ribozyme fitness (log ratio)” value was at most -4.2.
With A3G G42C U44G U56G G83A U145C C149G the “polymerase ribozyme fitness (log ratio)” value was at most -4.2.
With A3G G50A U77A G88A the “polymerase ribozyme fitness (log ratio)” value was at most -4.2.
For A3G G59C C96A U139C A142G, the “polymerase ribozyme fitness (log ratio)” value was at most -4.2.
For A3G G67U A89C C96G A106C A119C, the “polymerase ribozyme fitness (log ratio)” value was at most -4.2.
For A3G G88U, the “polymerase ribozyme fitness (log ratio)” value was at most -4.2.
For A3G U4A C36A A39U A49C G84A G94A, the “polymerase ribozyme fitness (log ratio)” value was at most -4.2.
For A3G U7C A23U A52G A73U G94A U102G C103G A107U, the “polymerase ribozyme fitness (log ratio)” value was at most -4.2.
In the case of A3G U9A A20G U33A C51A C75A G84A A150C, the “polymerase ribozyme fitness (log ratio)” value is reported as at most -4.2.
With A3G U9G A20G G81A G83C C125A U144C U145C the “polymerase ribozyme fitness (log ratio)” value was at most -4.2.
In the case of A3G U9G C99A, the “polymerase ribozyme fitness (log ratio)” value is reported as at most -4.2.
With A3G U13A G42C C75U A138U the “polymerase ribozyme fitness (log ratio)” value was at most -4.2.
In the case of A3G U15C C93G U146G, the “polymerase ribozyme fitness (log ratio)” value is reported as -2.23.
In the case of A3G U15G G25C C36A C87U C114U A115C U146A, the “polymerase ribozyme fitness (log ratio)” value is reported as at most -4.2.
In the case of A3G U31G A39U C57G U61G, the “polymerase ribozyme fitness (log ratio)” value is reported as at most -4.2.
For A3G U31G A40C G50A C54G G58A G71A, the “polymerase ribozyme fitness (log ratio)” value was at most -4.2.
For A3G U33C G58C C116G U139A G141U U146C, the “polymerase ribozyme fitness (log ratio)” value was at most -4.2.
In the case of A3G U44A C87A U90C C93G C105G A122G, the “polymerase ribozyme fitness (log ratio)” value is reported as at most -4.2.
In the case of A3G U44A G80C U82C G88A G92A, the “polymerase ribozyme fitness (log ratio)” value is reported as at most -4.2.
In the case of A3G U44G A113C, the “polymerase ribozyme fitness (log ratio)” value is reported as at most -4.2.
With A3G U77C C93G G143C the “polymerase ribozyme fitness (log ratio)” value was at most -4.2.
In the case of A3U A12C A24U A30U U31G C35G A47U G50U G74A G86A G141A, the “polymerase ribozyme fitness (log ratio)” value is reported as at most -4.2.
For A3U A12U A21G C27G G50C A66C A121U, the “polymerase ribozyme fitness (log ratio)” value was at most -4.2.
In the case of A3U A16G C38G C43G G58U G59A C118U G124C, the “polymerase ribozyme fitness (log ratio)” value is reported as at most -4.2.
With A3U A16G U31C C69G U82G G84C A121C A142C G143A the “polymerase ribozyme fitness (log ratio)” value was at most -4.2.
With A3U A17C A47U C93U U104A the “polymerase ribozyme fitness (log ratio)” value was -1.38.
In the case of A3U A17G A28U C63A G84A A121C A142U U145A A150C, the “polymerase ribozyme fitness (log ratio)” value is reported as at most -4.2.
For A3U A19C C96G C108G G141C, the “polymerase ribozyme fitness (log ratio)” value was at most -4.2.
In the case of A3U A19C G50A C93A C114G G124U U134A, the “polymerase ribozyme fitness (log ratio)” value is reported as at most -4.2.
For A3U A19G A20U U55A G58U U78A U90A U101G, the “polymerase ribozyme fitness (log ratio)” value was at most -4.2.
In the case of A3U A19U A24U C38A G65C G71A C93A G152C, the “polymerase ribozyme fitness (log ratio)” value is reported as at most -4.2.
In the case of A3U A20C A40C G46U A52G U56A C93U A113G, the “polymerase ribozyme fitness (log ratio)” value is reported as at most -4.2.
